This is an account of results in paper PMC3781053, “Von Willebrand Factor Inhibits Mature Smooth Muscle Gene Expression through Impairment of Notch Signaling” (PLoS ONE, 2013).

For the assay, the target named is T1, purified human von Willebrand factor (Factor VIII-free) (human, UniProt P04275 764-2813, Alexa 700 succinimide label where used as the labelled probe; unlabeled where coated or used as competitor).
T1 construct: von Willebrand factor, human, purified, free of Factor VIII; The supplier's vWF is plasma-derived as far as I recall; also called vWF; purified vWF; source: bought: Haematologic Technologies (Factor VIII-free)
Briefly: solid phase binding assay; Figure 9C; wells coated with purified vWF (200 ng/ml), probed with Alexa 700-labelled rat Jagged1-Fc or control Fc; TBS with 2 mM CaCl2 and 0.05% Tween 20, overnight; LiCor infrared scanner. Particulars: both partners purified.

B1: rat Jagged1-Fc (Fc fusion)
chain: [about 750 residues left out]QNTNDCSPHPCYNSGTCVDGDNWYRCECAPGFAGPDCRININECQSSPCAFGATCVDEINGYQCICPPGHSGAKCHEVSGRSCITMGRVILDGAKWDDDCNTCQCLNGRVACSKVWCGPRPCRLHKGHGECPNGQSCIPVLDDQCFVRPCTGAGECRSSSLQPVKTKCTSDSYYQDNCANITFTFNKEMMSPGLTTEHICSELRNLNILKNVSAEYSIYIACEPSLSANNEIHVAISAEDIRDDGNPVKEITDKIIDLVSKRDGNSSLIAAVAEVRVQRRPLKNRTD
modifications: Alexa 700 succinimide label where used as the labelled probe; unlabeled where coated
notes: Jagged1, rat; The R&D Systems rat Jagged 1 Fc chimera holds the extracellular domain as I recall; also called Jagged-Fc; source: bought: R&D Systems
In the case of B1, the binding result is “binds”.
